Results reported in ChEMBL document CHEMBL1201862, “PubChem BioAssay data set” (2004).

system: NCI-H322M; test: NCI tumour cell line growth inhibition, 48 h

SMILES	GI50
O=C(CNC(=O)OCc1ccccc1)NCCCCC(NC(=O)OCc1ccccc1)C(=O)O (centres undefined)	inactive: > 100 µM
CCOC(=O)Nc1ccc(S(=O)(=O)I)cc1.CCOC(=O)Nc1ccc(S(=O)(=O)I)cc1.CN(C=O)C1=C(N(C)C=O)C(N(C)C=O)=C(N(C)C=O)C(=O)C1=O	inactive: > 100 µM
C/C(=N\Nc1ccc([N+](=O)[O-])cc1[N+](=O)[O-])c1ccc2ccccc2n1	inactive: > 100 µM
CN(C)CCC(CCN(C)C)=NO	inactive: > 100 µM
CN1C2C=C(c3ccccc3)CC1CC2 (centres undefined)	inactive: > 100 µM
Cc1ccccc1S(=O)(=O)Nn1cnc2ccc(S(=O)(=O)Nc3ccc(Cl)cc3)cc2c1=O	inactive: > 100 µM
Oc1cc(-c2ccccc2)nc2ncccc12	active: 0.681 µM
COC(=O)C1=C(C)NC(C)=C(C(=O)OC)C1c1cccc(/[N+]([O-])=C/c2ccccc2)c1	inactive: > 100 µM
COc1cccc(N2C(=O)C3c4[nH]c5ccccc5c4C4c5ccccc5CCC4C3C2=O)c1 (centres undefined)	inactive: > 10 µM
Cc1c(N2CCOCC2)nc2ccc(Cl)cc2c1-c1ccccc1	inactive: > 100 µM
COc1cc2c(C)cc(O)cc2c2cc(O)c(C)cc12	inactive: 12.4 µM
CC(C)[C@](O)(C(=O)OCC1=CC[N+]2([O-])CC[C@@H](O)[C@@H]12)[C@H](C)O (some centres undefined) [INDICINE N-OXIDE]	inactive: > 10000 µM
CCOC(=O)/C=C(\C(=O)OCC)n1cc(C)c(=O)n(Cc2cn(CCCCOC(C)=O)nn2)c1=O	inactive: 20.1 µM
CC1c2[nH]c3ccccc3c2CCN1O (centres undefined)	inactive: > 100 µM
COc1cc(/N=C(\N)N=C(N)N)c2ncccc2c1	inactive: 88.3 µM
CCCCCCCC1(N=[N+]=[N-])C(=O)Nc2ccccc2C1=O (centres undefined)	inactive: 17.4 µM
COc1cc2nc(-c3cccs3)[nH]c(=O)c2cc1OC	inactive: > 100 µM
Nc1nnnn1NC(=O)NCCCl	inactive: > 10 µM
c1ccc2c(c1)CCN2CCc1c[nH]c2ccccc12	inactive: > 10 µM
Cc1ncc(COP(=O)(O)O)c(C)c1O	inactive: > 100 µM
CCOC(=O)c1nc2ccc([N+](=O)[O-])cc2c2c1CCO2	inactive: > 100 µM
O=C(CC(=O)c1ccccc1)C(=O)Nc1ccc(Cl)cc1	inactive: > 100 µM
O=[N+]([O-])c1nccn1COCCI	inactive: > 100 µM

SMILES	GI50
C=CC(C)(C)n1cc(C2=C3OC(=O)C(c4cn(C(C)(C)C=C)c5ccccc45)=C3OC2=O)c2ccccc21	inactive: > 100 µM
Cc1c(Cc2ccccc2)n(COCCCO)c(=O)[nH]c1=O	inactive: > 100 µM
Oc1ccc2c(c1)-c1c(c3cc(O)ccc3n1CCN1CCOCC1)CC2	inactive: 37.8 µM
CC1=C(C(=O)N[C@@H](CC(C)C)C(=O)O)N2C(=O)[C@@H](NC(=O)[C@@H](N)Cc3ccccc3)[C@H]2SC1	inactive: > 100 µM
Cc1ccccc1-c1c(N)nc(NC#N)nc1C(=O)Nc1ccccc1	inactive: > 100 µM
Cc1nc(-n2nc(-c3ccccc3)cc2-c2ccccc2)sc1C(=O)/C=C/c1ccc([N+](=O)[O-])cc1	inactive: 29 µM
CN1CCN(C2=CC(=O)c3c(O)ccc(O)c3C2=O)CC1	inactive: 1.54 µM
O=C(NC1CCN(Cc2ccccc2)CC1)c1cccc(I)c1	inactive: 28.6 µM
CCSc1nc2sc(C)c(C)c2c(=O)n1-c1ccc(C(=O)O)cc1	inactive: 96.6 µM
CCN(CC)CCNC(=O)c1ccccc1NC(=O)C(=O)Nc1ccccc1C(=O)NCCN(CC)CC	inactive: > 100 µM
CCOC(=O)C1C(=O)CC(=O)C2CCCCC21 (centres undefined)	inactive: > 100 µM
O=c1c2cc([N+](=O)[O-])ccc2n(Cc2ccccc2)n1Cc1ccccc1	inactive: 27.2 µM
COc1ccc(N2C(=O)C3C=CC(n4[nH]c(=O)n(Cc5ccccc5)c4=O)CC3C2=O)cc1 (centres undefined)	inactive: > 100 µM
CC(NC(=O)C(NC(=O)CNC(=O)OC(C)(C)C)C(C)C)C(=O)Oc1c(Cl)c(Cl)c(Cl)c(Cl)c1Cl (centres undefined)	inactive: 25.2 µM
Cc1ccc(CCC(=O)C(=O)O)s1	inactive: > 100 µM
CN1CCN([C@H]2C[C@H]3[C@@H]4CC=C5C[C@@H](N6CCCC6)CC[C@]5(C)[C@H]4CC[C@]3(C)[C@H]2O)CC1	inactive: 72.3 µM
C/C(=N\Nc1cc(CN2CCCC2)c(-c2ccc(Cl)cc2)nn1)C(=O)O	inactive: > 100 µM
CCOC(=O)CC1c2ccc(O)cc2OC(=O)C1c1ccc([N+](=O)[O-])cc1 (centres undefined)	inactive: 49.1 µM
C=C(COC(C)=O)CC(OC(C)=O)c1ccccc1 (centres undefined)	inactive: > 100 µM
O=C(O)C1(Cc2ccccc2)Cc2ccccc2C1	inactive: > 100 µM
COC(=O)c1c2c(cc3c1CC1(Cc4cc5c(c(C=O)c4C1)CCCC5)C3)CCCC2 (centres undefined)	inactive: 95.1 µM
C=C(C)[C@H]1C2=CC(C)=C(O2)[C@@H](O)[C@H](C(=C)C)CCC2=C[C@H]1OC2=O [KALLOLIDE A]	inactive: > 100 µM
C1OC1C1CO1 (centres undefined)	inactive: > 100 µM

SMILES	GI50
CCOC(=O)c1c(CN2CCCC2)n(-c2ccccc2)c2cc(Br)c(O)cc12	inactive: 24.4 µM
CCCCCCCCCCCNC=O	inactive: > 100 µM
O=c1cc(-c2ccccc2)oc2cc(Oc3nnnn3-c3ccccc3)ccc12	inactive: 31.5 µM
NC(=O)C1=C(O)C[C@@H]2CC3Cc4cccc(O)c4C(=O)C3=C(O)[C@]2(O)C1=O (some centres undefined)	active: 0.457 µM
COC(=O)CCCC(=O)C1=NN(c2ccc(Cl)cc2)Cc2ccccc2N1	inactive: 28.2 µM
COC(=O)C(=O)C(C(=O)C(=O)Nc1ccc(OC)cc1[N+](=O)[O-])c1nc2ccc([N+](=O)[O-])cc2nc1O (centres undefined)	inactive: > 100 µM
COc1c(O)cc2c3c(ccnc13)NC=C2	inactive: > 100 µM
Clc1ccc(/C=C/c2nc3ccccc3s2)cc1Cl	inactive: > 100 µM
CCOC(=O)CSc1nnc(CSc2nc(-c3ccccc3)c(-c3ccccc3)[nH]2)n1-c1ccccc1	inactive: > 88.7 µM
O=C1C=C2CO[C@H]3OC[C@H](O)[C@@H]1[C@@H]23	inactive: > 100 µM
Fc1ccccc1-c1cc(S)c2cc3c(cc2n1)OCO3	inactive: 5.71 µM
Nc1nc(N)nc(CC(=O)O)n1	inactive: > 100 µM
O=[N+]([O-])c1ccc2c3ccccc3[s+]([O-])c2c1 (centres undefined)	inactive: > 100 µM
CCN(CC)Cc1c(/C=C\c2cc(OC)c(OC)c(OC)c2)ccc(OC)c1O	inactive: 4.61 µM
COc1cc(-c2ccc(/N=N/c3c(S(=O)(=O)O)cc4cc(S(=O)(=O)O)cc(N)c4c3O)c(OC)c2)ccc1/N=N/c1c(S(=O)(=O)O)cc2cc(S(=O)(=O)O)cc(N)c2c1O	inactive: 97.1 µM
Clc1ccc(OCc2nnc(COc3ccc(OCc4nnc(COc5ccc(Cl)cc5Cl)o4)c(Cl)c3)o2)c(Cl)c1	inactive: 32.7 µM
Cc1ccc2c(c1-c1ccccc1)C(=O)OC2	inactive: > 100 µM
Cc1c(Cl)ccc2c1NC(=O)C2(O)CC(=O)c1ccc2ccccc2c1 (centres undefined)	inactive: 79.1 µM
COc1ccc2nc3ccc(OC)cc3c(S(=O)(=O)Cc3ccc([N+](=O)[O-])cc3)c2c1	inactive: > 100 µM
OC(Cc1ccc2ccccc2n1)(C(F)(F)F)C(F)(F)F	inactive: > 10 µM
CC1=C(C(=O)CC(=O)C(=O)NC2C3CC4CC(C3)CC2C4)Sc2ccccc2N1 (centres undefined)	inactive: > 100 µM
CN(C)CCNC(=O)c1cccc2c1nc(-c1ccc(F)cc1)c1ccccc12	inactive: 4.2 µM
C/C=C\C(CC(=O)NCCc1c[nH]c2ccccc12)CC(=O)OC (centres undefined)	inactive: > 100 µM

SMILES	GI50
CCc1c(OC(C)=O)c2c(NC3OC(COC(C)=O)C(OC(C)=O)C(OC(C)=O)C3OC(C)=O)nc(OC)nc2oc1=O (centres undefined)	inactive: > 100 µM
CC[C@@H]1/C=C/C=C/C[C@H](C)[C@@H](O)[C@](C)(O)C(=O)[C@H](C)[C@@H](O)[C@H](C)C(=O)[C@H](C)[C@@H](O)[C@H](C)/C=C/C(=O)O[C@H]2[C@@H](C)[C@@H](CC1)O[C@]1(O[C@H](CC(C)O)[C@H](C)CC1=O)[C@@H]2C (some centres undefined)	inactive: 6.56 µM
Cc1ccc(-c2nnc(SCC(=O)O)[nH]2)cc1	inactive: > 100 µM
N#CC1N(C(=O)c2ccc(F)cc2)c2ccccc2N1C(=O)c1ccc(F)cc1	inactive: > 100 µM
O=c1n(-c2ccccc2)c(=O)n2c(-c3ccccc3)c(-c3ccccc3)n12	inactive: > 100 µM
O=c1[nH]cc(F)c(=O)n1C1OC(CO)C(O)C1O (centres undefined)	inactive: > 100 µM
Cc1ccc(/N=N/c2c(O)ccc3cc(S(=O)(=O)O)cc(S(=O)(=O)O)c23)cc1	inactive: > 100 µM
CNc1ncnc2c1nnn2C	inactive: > 100 µM
CCOCc1c(C)cc(C)c(C2C(C(=O)c3ccccc3)N3c4ccccc4C=CC3C2(C#N)C(=O)OCC)c1C (centres undefined)	inactive: > 100 µM
CN(C)CCCNc1ccc2c(=O)n(CCN(C)C)c(=O)n3c4ccccc4c(=O)c1c23	active: 0.054 µM
CN1C/C(=C\c2cccs2)C2=NN(c3ccccc3)C(c3cccs3)C2C1 (centres undefined)	inactive: 7.06 µM
CCCCNCCCNCCCNC(=O)c1csc(-c2csc(CCNC(=O)C(NC(=O)C(C)C(O)C(C)NC(=O)C(NC(=O)c3nc(C(CC(N)=O)NCC(N)C(N)=O)nc(N)c3C)C(OC3OC(CO)C(O)C(O)C3OC3OC(CO)C(O)C(OC(N)=O)C3O)c3c[nH]cn3)C(C)O)n2)n1 (centres undefined)	inactive: > 50 µM
O=C1C(c2ccccc2)=[N+]([O-])c2cc([N+](=O)[O-])ccc21	inactive: 37.5 µM
CCCc1cc(-c2ccc(-c3cc(CCC)c(C=O)[nH]3)s2)[nH]c1C=O	inactive: > 100 µM
CCOC(=O)c1cn2c(n1)sc1cccc(C)c12	inactive: > 100 µM
OC(c1ccc(Cl)cc1)(c1ccc(Cl)cc1)c1cncnc1	inactive: 16.6 µM
COc1ccc(C2CC(c3ccccc3)=Nc3c(-c4ccccc4)nnn32)cc1 (centres undefined)	inactive: 5.74 µM
CN(NC(=O)c1ccco1)C1=NCCN1	inactive: > 100 µM
Cc1ccc(/N=N\c2c(O)ccc3cc(S(=O)(=O)O)ccc23)cc1	inactive: > 100 µM
CC(C)OCN1COCN/C1=N/C#N	inactive: > 100 µM

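Method: 48-hour compound exposure of cells in 96-well plates, five concentrations, linear interpolation of endpoints. GI50 is the concentration that inhibits growth by half.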 The source made the active and inactive calls. No stated cut-off is given here; in the data, active = GI50 up to about 1.1 µM and inactive = higher.
